In experiment [1] the target is T1, recombinant human TWEAKR protein (TPP-2305) (Homo sapiens, UniProt Q9NP84).
T1 construct: purchased Fitzgerald Inc 30R-AT080
As to conditions: published data (WO2009/020933, WO2009/140177, literature); cited from earlier work.

The subject of experiment [2] is TWEAKR. Briefly: NF-kappaB reporter gene assay for agonistic activity of anti-TWEAKR antibodies. The settings on record: assay not named at b490. The experiment is classed as cell-based. The text has this:
11 different Fab phages were identified, and the corresponding antibodies were cloned into a mammalian EgG expression vector which provides the CH2-CH3 domains missing in the soluble FAb. Following identification of preferred antibodies, these were expressed as full-length IgGs. These constructs were expressed, for example, transiently in mammalian cells as described by Tom et al., Chapter 12 in Methods Express: Expression Systems edited by Micheal R. Dyson and Yves Durocher, Scion Publishing Ltd, 2007 (see AK-Example 1). The antibodies were purified by protein-A chromatography and characterized further by their binding affinity to soluble monomeric TWEAKR using ELISA and BIAcore analysis, as described in AK-Example 2. To determine the cell binding characteristics of the anti-TWEAKR antibodies, binding was tested by flow cytometry on a number of cell lines (HT29, HS68, HS578). NFiB reporter gene assays were carried out to examine the agonistic activity of all 11 antibodies identified (human IgG1). […] In the end, 7 variants were selected based on increased affinity compared to the best single substitution variant G102T. The corresponding DNA thereof was cloned into a mammalian IgG expression vector and examined for functional activity in the NF-kappaB reporter gene assay mentioned above. […]
Background: Reporter assays use an easily measured gene product as a stand-in for the process of interest.

Experiment [3] has as its system TWEAKR. Briefly: NF-kappaB reporter gene assay, agonistic activity. The class given is cell-based. The protocol:
NF-kappaB reporter gene assays were carried out to assess the agonistic activity of all 11 antibodies identified (human IgG1). HEK293 cells were transiently transfected with an NF-kappaB reporter construct (BioCat, Cat. No. LR-0051-PA) using 293fectin according to the instructions of the manufacturer. Transfected cells were sown in F17 media (serum-free; Invitrogen) at 37 C, 5% CO2 into white polylysine-coated 384-well plates (BD). The next day, the cells were stimulated with various concentrations of purified antibodies for 6 h, and a luciferase assay was then carried out using standard methods.
Maturation was carried out in a first mutations collection round, followed by recombination of those amino acid modifications which increased affinity and activity most. […] 96 variants of each of the 12 selection pools were expressed as soluble Fabs and examined in an ELISA format. […]

Experiment [4] has as its system TWEAKR. As to conditions: from the literature (Michaelson et al., Culp et al., Pellegrini et al.); cited from earlier work.

The source of these data is patent US10022453B2, “Antibody drug conjugates (ADCs) with kinesin spindel protein (KSP)” (BAYER PHARMA AKTIENGESELLSCHAFT, priority 2013, dated 2018).

B1: P4A8: "reference antibodies [PDL-192(TPP-1104), P4A8(TPP-1324)]"; "P4A8 displays a very low agonistic activity" (protein, listed as Homo Sapiens)
light: DIVLTQSPASLAVSLGQRATISCRASKSVSTSSYSYMHWYQQKPGQPPKLLIKYASNLESGVPARFSGSGSGTDFSLNIHPMEEDDTAMYFCQHSRELPFTFGGGTKLEIKRTVAAPSVFIFPPSDEQLKSGTASVVCLLNNFYPREAKVQWKVDNALQSGNSQESVTEQDSKDSTYSLSSTLTLSKADYEKHKVYACEVTHQGLSSPVTKSFNRGEC
heavy: QVQLVQSGAEVKKPGASVKVSCKGSGYTFTDYGMHWVRQAPGQGLEWMGVISTYNGYTNYNQKFKGRVTMTVDKSTSTAYMELRSLRSDDTAVYYCARAYYGNLYYAMDYWGQGTLVTVSS[omitted - human IgG1 constant region]
Usually Kd stands for the free concentration of one partner at which half of the binding sites on the other are occupied at equilibrium, for simple one-to-one binding. Consider B1, for which, in experiment [1], the Kd was 2.6 nM. Besides, the “agonistic activity at TWEAKR” value in experiment [2] was “very low agonistic activity”. Besides, the Agonistic activity entry in experiment [3] is listed as “very low agonistic activity”.

B2: PDL-192: "agonistic antibodies already described [e.g. PDL-192(TPP-1104)"; "reference antibodies"; anti-TWEAKR antibody with "moderate agonistic activity" (protein, listed as Homo Sapiens)
light: DIQMTQSPSSLSASVGDRVTITCRASQSVSTSSYSYMHWYQQKPGKAPKLLIKYASNLESGVPSRFSGSGSGTDFTLTISSLQPEDFATYYCQHSWEIPYTFGGGTKVEIKRTVAAPSVFIFPPSDEQLKSGTASVVCLLNNFYPREAKVQWKVDNALQSGNSQESVTEQDSKDSTYSLSSTLTLSKADYEKHKVYACEVTHQGLSSPVTKSFNRGEC
heavy: QVELVESGGGLVQPGGSLRLSCAASGFTFSSYWMSWVRQAPGKGLEWVAEIRLKSDNYATHYAESVKGRFTISRDDSKNSLYLQMNSLRAEDTAVYYCTGYYADAMDYWGQGTLVTVSS[omitted - human IgG1 constant region]
Turning to B2, the Kd in experiment [1] was 5.5 nM. Besides, in experiment [2], the “agonistic activity at TWEAKR” value is “moderate agonistic activity”. Further, the “agonistic activity / activation of TWEAKR” value in experiment [4] was “limited”. Also, the Agonistic activity entry in experiment [3] is reported as “moderate agonistic activity”.
